PubChem BioAssay AID1460 (National Center for Advancing Translational Sciences (NCATS), 2008)
Out of some 270,000 compounds screened, about 5,800 (2.1%) were called active. This list was built around the results that the source calls inconclusive (neither active nor inactive); the mix of calls is not that of the screen. The call rests on the fitted dose curve; in most records, active means well fitted inhibition curve with a large enough effect; inconclusive means small, poorly fitted or top-dose-only effect; inactive means flat fitted curve, though single readings scatter. Potencies of inconclusive entries are doubtful fits and often do not repeat. Some compounds were tested as several samples or in several runs, with calls that do not always agree.

target: Microtubule-associated protein tau (Homo sapiens) (UniProt P10636); experiment: qHTS for Inhibitors of Tau Fibril Formation, Thioflavin T Binding; conditions: recombinant tau K18 P301L, heparin-induced fibrillization, ThT fluorescence; series mostly up to 57.4 µM; activity, negative = inhibition: at the top concentration; further: nearly all actives have a fitted effect of over 55% in size
Outline: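 Fibril formation assay: tau K18 P301L at 15 uM with trace Alexa 594 label, heparin inducer 20 uM, pH 7 sodium acetate buffer, 37 C for 6 hr; endpoint ThT signal.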
On the % scale 0 is the no-effect control and ±100 the full control effect; potency means the concentration at half of the fitted maximal effect; tags describe the fitted curve by direction and shape.

Chain of UniProt P10636 (P10636 whole entry, looked up): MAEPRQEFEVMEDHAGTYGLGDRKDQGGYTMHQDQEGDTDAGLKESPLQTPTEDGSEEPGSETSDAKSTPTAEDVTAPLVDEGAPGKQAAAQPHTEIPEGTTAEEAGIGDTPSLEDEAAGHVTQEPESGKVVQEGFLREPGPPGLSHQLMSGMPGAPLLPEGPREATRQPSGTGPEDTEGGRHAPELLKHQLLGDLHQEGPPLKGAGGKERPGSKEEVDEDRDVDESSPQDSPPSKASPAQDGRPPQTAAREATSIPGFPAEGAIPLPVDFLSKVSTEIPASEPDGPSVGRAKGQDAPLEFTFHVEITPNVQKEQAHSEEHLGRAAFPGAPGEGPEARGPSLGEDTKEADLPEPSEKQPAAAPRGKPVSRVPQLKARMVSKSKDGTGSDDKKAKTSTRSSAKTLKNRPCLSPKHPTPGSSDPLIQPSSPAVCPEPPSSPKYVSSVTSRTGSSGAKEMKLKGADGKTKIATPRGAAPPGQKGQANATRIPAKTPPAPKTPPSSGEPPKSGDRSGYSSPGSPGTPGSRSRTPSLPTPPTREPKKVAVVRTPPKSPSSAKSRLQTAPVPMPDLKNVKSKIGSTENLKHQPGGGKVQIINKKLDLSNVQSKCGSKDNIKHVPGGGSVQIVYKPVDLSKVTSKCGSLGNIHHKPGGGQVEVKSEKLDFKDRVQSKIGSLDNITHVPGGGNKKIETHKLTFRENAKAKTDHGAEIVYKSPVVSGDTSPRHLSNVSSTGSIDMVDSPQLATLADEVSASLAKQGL

For `COc1ccc(S(=O)(=O)N2CCCCCC2)cc1C(=O)OCc1c(C)noc1C`, which “activity, negative = inhibition” value is on record?
The value was inactive: -1.18%.

With `O=C(/C=C/c1ccc(Cl)cc1)NC(=S)Nc1ccc(NC(=O)c2ccco2)cc1` as the molecule, how does the Potency read?
Its Potency is inconclusive: 3.55 µM [inhibitor, full curve].

For `COC(=O)c1ccc(CNC(=O)COC(=O)C23CC4CC(CC(C4)C2)C3)cc1`, which “activity, negative = inhibition” value is on record?
The value was inactive: -11.4%.

For `S=c1[nH]nc(COc2ccccc2)n1Cc1ccccc1`, which “activity, negative = inhibition” value is on record?
Its value is inactive: -15.5%.

With `CCn1cc(C(=O)NCCOC)c(=O)c2ccc(C)nc21` as the molecule, how does the “activity, negative = inhibition” value read?
Its value is inactive: -4.42%.

`Cc1ccc(NS(=O)(=O)c2cccc(C(=O)NCC(c3cccs3)N(C)C)c2)cc1` (stereo unspecified) was tested. Which “activity, negative = inhibition” value did it give?
Its value is inactive: 9.06%.

How did the Potency turn out when `Cc1nn(-c2ccccc2)c(Cl)c1/C=N/Nc1nc2ccccc2n1C` was run?
The Potency was inconclusive: 3.98 µM [inhibitor, partial curve].

How did the Potency turn out when `CCc1ccc(S(=O)(=O)N(C(=O)c2ccncc2)c2ccc(OC(=O)c3ccncc3)cc2)cc1` was run?
Its Potency is inconclusive: 15.8 µM [inhibitor, partial curve, poor fit].

For `O=C(C[n+]1ccn(CCCNP2(=O)C=C(c3ccccc3)OC(c3ccccc3)=C2)c1)c1cccs1`, which Potency is on record?
Its Potency is inconclusive: 28.2 µM [inhibitor, partial curve, poor fit].

Which “activity, negative = inhibition” value does the source give for `Cc1sc(NC(=O)CCCC(=O)O)c(C#N)c1C` here?
The value was inactive: -3.15%.

How did the Potency turn out when `CCCn1nc(C(=O)OCn2nnc3ccccc3c2=O)c2ccccc2c1=O` was run?
Its Potency is inconclusive: 1 µM [activator, full curve, poor fit].

How did the “activity, negative = inhibition” value turn out when `O=C(c1ccccc1)N1CCC(c2nc3c(nnn3Cc3ccco3)c(=O)[nH]2)CC1` was run?
Its value is inactive: 3.26%.

How did the Potency turn out when `O=C(CSc1nc2nccnc2c(=O)n1CCc1c[nH]c2ccccc12)Nc1ccc(F)cc1` was run?
Its Potency is inconclusive: 0.631 µM [inhibitor, full curve].

With `COc1ccc(OCC(=O)Nc2nc3ccccc3[nH]2)cc1` as the molecule, how does the Potency read?
The Potency was inconclusive: 14.1 µM [inhibitor, partial curve].

`COc1ccc(CC(=O)N(Cc2nc(-c3ccc(C)cc3)no2)C(C)C)cc1` was tested. Which Potency did it give?
The Potency was inconclusive: 28.2 µM [inhibitor, single point].

For `CSc1nn(Cc2cccc(Cl)c2)c(N(C(C)=O)C(C)=O)c1S(=O)(=O)c1ccccc1`, which Potency is on record?
Its Potency is inconclusive: 39.8 µM [inhibitor, single point].

Which “activity, negative = inhibition” value does the source give for `Oc1ccc(-c2n[nH]c(=S)n2-c2ccc3c(c2)OCCO3)cc1` here?
The value was inactive: -6.89%.

Which “activity, negative = inhibition” value does the source give for `COc1ccc2nc(NC(=O)c3cccs3)sc2c1` here?
Its value is inactive: -3.84%.

With `Cc1ccccc1-c1noc(-c2ccc(N3CCN(C)CC3)c([N+](=O)[O-])c2)n1` as the molecule, how does the “activity, negative = inhibition” value read?
Its value is inactive: 0.15%.

With `COc1ccc(S(=O)(=O)Nc2ccc(O)c3ccccc23)cc1` as the molecule, how does the Potency read?
The Potency was inconclusive: 35.5 µM [inhibitor, single point].

How did the “activity, negative = inhibition” value turn out when `COC(=O)c1c(NC(=O)C2COc3ccccc3O2)sc2c1CCN(Cc1ccccc1)C2` (stereo unspecified) was run?
Its value is inactive: -11.1%.

For `CCOc1ccc2nc(C)cc(Nc3cccc([N+](=O)[O-])c3)c2c1`, which “activity, negative = inhibition” value is on record?
Its value is inactive: -3.23%.

`COc1ccc(C)cc1NC(=O)Nc1ccccc1OCc1cc(=O)n2ccccc2n1` was tested. Which Potency did it give?
The Potency was inconclusive: 31.6 µM [inhibitor, partial curve].

How did the Potency turn out when `COc1cccc(NC(=O)CSC2=Nc3ccccc3C3=NC(CC(=O)NCc4ccc5c(c4)OCO5)C(=O)N23)c1` (stereo unspecified) was run?
Its Potency is inconclusive: 20 µM [inhibitor, single point].

With `O=[N+]([O-])c1ccc(N2CCCCC2)cc1` as the molecule, how does the Potency read?
Its Potency is active: 8.91 µM.

Which Potency does the source give for `COc1ccc(NC2=CC(c3cccc(OC)c3)N(c3ccc(OC)cc3)C2=O)cc1` (stereo unspecified) here?
The Potency was inconclusive: 25.1 µM [inhibitor, partial curve].

Which “activity, negative = inhibition” value does the source give for `CC(C)C(=O)NC(=S)Nc1ccccc1C(=O)NC1CCCCC1` here?
Its value is inactive: 1.36%.

With `CC1(OC(=O)C2CCCC2)C(=O)C=C2C=C(c3ccsc3)N(Cc3ccccc3)C=C2C1=O` (stereo unspecified) as the molecule, how does the Potency read?
The Potency was active: 10 µM.

How did the “activity, negative = inhibition” value turn out when `c1cncc(-c2csc(NCc3ccco3)n2)c1` was run?
The value was inactive: -23.1%.

`O=C(N/N=C/c1ccccn1)c1cc(-c2ccncc2)nc2ccccc12` was tested. Which “activity, negative = inhibition” value did it give?
The value was inactive: -15.8%.

With `Cc1nn(-c2ccccc2)c(C)c1/C=N/n1c(-c2ccncc2)n[nH]c1=S` as the molecule, how does the “activity, negative = inhibition” value read?
The value was inactive: -3.92%.

With `CCCCCCc1cc2cc(-c3nnc(-c4ccccc4O)o3)c(=O)oc2cc1O` as the molecule, how does the Potency read?
The Potency was inconclusive: 25.1 µM [inhibitor, single point].

`CCCn1c(=O)c2[nH]c(-c3ccc(OCC(=O)NCCN)cc3)nc2n(CCC)c1=O` was tested. Which Potency did it give?
Its Potency is inconclusive: 11.2 µM [inhibitor, partial curve].

`CC(=O)c1ccc(OCC(C)C)c(CN2CCCCC2)c1` was tested. Which Potency did it give?
Its Potency is inconclusive: 17.8 µM [inhibitor, partial curve].

How did the Potency turn out when `O=C1Nc2ccc(Br)cc2C1=Nc1ccc(-c2nnc3n2CCCCC3)cc1` was run?
The Potency was inconclusive: 14.1 µM [inhibitor, partial curve].

For `O=[N+]([O-])c1ccc2nc(SCc3cn4ccccc4n3)[nH]c2c1`, which Potency is on record?
Its Potency is inconclusive: 3.55 µM [inhibitor, full curve].

With `CN(C)c1ccc(C(CNS(=O)(=O)c2ccc(F)cc2)N2CCOCC2)cc1` (stereo unspecified) as the molecule, how does the Potency read?
The Potency was inconclusive: 35.5 µM [inhibitor, single point].

For `O=C(O)c1ccc(NC2=C(N3CCOCC3)C(=O)c3ccccc3C2=O)cc1`, which Potency is on record?
Its Potency is active: 17.8 µM.

How did the Potency turn out when `O=C(NCc1ccccn1)c1ccc(Cn2c(=S)[nH]c3ccc(Br)cc3c2=O)cc1` was run?
The Potency was inconclusive: 39.8 µM [inhibitor, single point].

For `O=C(/C=C\c1ccco1)Nc1cc([N+](=O)[O-])ccc1F`, which “activity, negative = inhibition” value is on record?
The value was inactive: -9.2%.

Which “activity, negative = inhibition” value does the source give for `COc1ccc(-n2cc(C(=O)OCc3ccc(Cl)cc3)c3ccccc3c2=O)cc1` here?
The value was inactive: -9.4%.

For `CC(C)(C)NC(=O)CSC(=Nc1cccc(F)c1)NC#N`, which Potency is on record?
The Potency was inconclusive: 15.8 µM [inhibitor, partial curve].

`O=C(Nc1ccc(C(=O)N2CCCC2)cc1)c1ccc2c(c1)OCO2` was tested. Which Potency did it give?
Its Potency is inconclusive: 3.55 µM [inhibitor, full curve, poor fit].

`COC(=O)c1ccc(Cl)cc1NC(=O)N(Cc1ccc(OC)cc1)C1CCN(C(C)=O)CC1` was tested. Which “activity, negative = inhibition” value did it give?
The value was inactive: 0.0136%.

Which Potency does the source give for `CN1c2ccccc2C(C)(C)C12C=Nc1c(cc(N3CCOCC3)c3ccccc13)O2` (stereo unspecified) here?
The Potency was inconclusive: 20 µM [inhibitor, partial curve].

Which Potency does the source give for `COc1cc(Cl)c(C)cc1NC(=O)c1sc2nc(C)cc(C)c2c1N` here?
The Potency was inconclusive: 2.51 µM [inhibitor, full curve, poor fit].

With `Cc1ccsc1CN(C(=O)COc1cccc(C)c1C)C1CCS(=O)(=O)C1` (stereo unspecified) as the molecule, how does the “activity, negative = inhibition” value read?
The value was inactive: -9.98%.

Which “activity, negative = inhibition” value does the source give for `COc1cc(C(=O)N(Cc2cccnc2)c2nc3cc(C)c(C)cc3s2)cc(OC)c1OC` here?
The value was inactive: -3.07%.

Which Potency does the source give for `O=C(O)c1cc(N=Nc2c(O)ccc3ccccc23)cc(C(=O)O)c1` here?
Its Potency is active: 15.8 µM.

How did the Potency turn out when `COC(=O)CCCC1=CC2=CC(=O)C(C)(OC(=O)c3cccs3)C(=O)C2=CN1CCc1ccccn1` (stereo unspecified) was run?
The Potency was active: 11.2 µM.

For `Cc1cc2cc3c(cc2nc1SCC(=O)OC(C)C)OCO3`, which Potency is on record?
Its Potency is inconclusive: 7.94 µM [inhibitor, partial curve, poor fit].

Which “activity, negative = inhibition” value does the source give for `O=C(CC1SC2=NCCN2C1=O)Nc1ccc(Br)cc1` (stereo unspecified) here?
Its value is inactive: -6.63%.

Which Potency does the source give for `Cc1cccc(NC(=O)c2cc(Cl)nc3ccccc23)n1` here?
Its Potency is inconclusive: 44.7 µM [inhibitor, single point].

How did the Potency turn out when `Cc1oc(C)c2c(=O)cc(-c3ccc4c(c3)OCO4)cc(OC(=O)c3cccc(Cl)c3)c12` was run?
The Potency was inconclusive: 20 µM [inhibitor, partial curve].

For `C=C1C(=O)OC2CC1C(OC(C)=O)CC(C)=CCCC(C)=CCC[C@@]2(C)O` (stereo partly specified), which Potency is on record?
Its Potency is inconclusive: 15.8 µM [inhibitor, partial curve].

Which “activity, negative = inhibition” value does the source give for `O=S(=O)(c1ccc(-n2cnnn2)cc1)N1CCN(c2cccc(C(F)(F)F)c2)CC1` here?
Its value is inactive: 6.03%.

How did the Potency turn out when `COC(=O)C1=C(O)/C(=C\c2ccc(CNS(=O)(=O)c3ccc(Cl)cc3)o2)N=C1C` was run?
Its Potency is inconclusive: 39.8 µM [inhibitor, single point].

`COc1ccc2c(c1)-c1nc(/N=C/c3ccccc3O)sc1CC2` was tested. Which Potency did it give?
The Potency was active: 31.6 µM.

`CCCCC(c1nnnn1CS(=O)(=O)c1ccc(C)cc1)N1CCN(c2ccccc2)CC1` (stereo unspecified) was tested. Which “activity, negative = inhibition” value did it give?
Its value is inactive: -17.1%.

For `Cc1ccc(S(=O)(=O)/C=C/C#N)cc1`, which Potency is on record?
Its Potency is inconclusive: 7.08 µM [inhibitor, full curve].

How did the Potency turn out when `CCn1c(SCc2nc3ccccc3c(=O)[nH]2)nc2ccccc21` was run?
The Potency was inconclusive: 14.1 µM [inhibitor, partial curve].

With `Cc1ccc(S(=O)(=O)NCc2ccc(C(=O)NCCc3cccc(C)c3)cc2)cc1` as the molecule, how does the Potency read?
Its Potency is inconclusive: 0.891 µM [inhibitor, full curve].

With `Cn1cccc1C(=O)NC(=O)COC(=O)Cc1coc2ccc3ccccc3c12` as the molecule, how does the Potency read?
Its Potency is inconclusive: 2.24 µM [inhibitor, partial curve].

How did the “activity, negative = inhibition” value turn out when `Brc1cc2c(cc1/C=N/Nc1nc(N3CCOCC3)nc(N3CCOCC3)n1)OCO2` was run?
Its value is inactive: -4.47%.

How did the Potency turn out when `CC1(C)CC(=O)C(C(c2ccncc2)C2C(=O)CC(C)(C)CC2=O)C(=O)C1` was run?
Its Potency is inconclusive: 15.8 µM [inhibitor, partial curve].

`CCN(CC)S(=O)(=O)c1cccc(C(=O)N/N=C/c2ccc([N+](=O)[O-])o2)c1` was tested. Which Potency did it give?
The Potency was inconclusive: 28.2 µM [inhibitor, single point].

Which Potency does the source give for `CS(=O)(=O)N1CCN(c2ccc(C(=O)NC3C4CC5CC(C4)CC3C5)cc2[N+](=O)[O-])CC1` (stereo unspecified) here?
Its Potency is inconclusive: 25.1 µM [inhibitor, single point].

`Cc1ccc(S(=O)(=O)/N=C2/C=C(Sc3ncn[nH]3)C(=O)c3ccccc32)c(C)c1` was tested. Which Potency did it give?
The Potency was active: 10 µM.

For `O=[N+]([O-])c1ccc2c(c1)oc1ccccc12`, which Potency is on record?
Its Potency is inconclusive: 39.8 µM [inhibitor, single point].

For `Cc1ccc(C2=NN(C(=S)Nc3ccccc3)C(c3ccco3)C2)cc1` (stereo unspecified), which “activity, negative = inhibition” value is on record?
The value was inactive: -7.35%.

How did the Potency turn out when `COc1ccc(OCC(=O)Nc2ccccc2C(=O)N2CCCC2)cc1` was run?
The Potency was inconclusive: 17.8 µM [inhibitor, partial curve].
